Data: patent publication US9617324B2, “Ameliorating agent for blood-brain barrier dysfunction” (Nagasaki University, priority 2012, dated 2017)
“Also recorded” adds a separate entry of the source. Like-named read-outs stand apart in the source and are kept apart here. At least one peptide structure holds a part that was inferred or is arguable (an end, a ring closure or a residue). Non-standard residues stand in square brackets, D forms with d. Residues, ends and D or L forms follow the SMILES beside them. No end group written: not given here. Nle = CCCC[C@H](N)C(=O)O; Nva = CCC[C@H](N)C(=O)O

Tests used:
[1] = tested on: thrombotic cerebral infarction PIT model; experiment: PIT model: damaged cerebral region by TTC staining; type: in vivo, mouse
[2] = tested on: thrombotic cerebral infarction PIT model
[3] = tested on: model mice of cerebral ischemia (tMCAO); experiment: tMCAO (ischemia for an hour, reperfusion) model, clinical scores of motor dysfunction; type: in vivo, mouse; conditions: for clinical score (average): tMCAO for an hour
Method: The model mice of cerebral ischemia produced by left middle cerebral artery occlusion in C57BL/J6 mice were maintained for an hour, followed by reperfusion. P30 (1 mg/kg or 3 mg/kg) or P6 (1 mg/kg) was administered into the caudal vein after an hour of reperfusion. Thereafter, the course of the mice was observed every 24 hours to evaluate motor function and existence. The clinical scores showing motor dysfunction are evaluated using the following five grades: 1: unable to completely extend the right front limb, 2: clockwise circling behavior, 3: unable to hold the position and incline to the right, 4: disappearance of spontaneous movement, and 5: death.
In FIG. 5, the data indicated by white squire indicate values when 0.1% DMSO in PBS (vehicle) was administered into the caudal vein in an amount of 100 μl/10 g after an hour of tMCAO for an hour. […] Black circle and black rhombus in the upper graph indicate the results of 1 mg/kg and 3 mg/kg P30 intravenous (i.v.) administration, respectively, and black circle in the lower graph indicates the results of 1 mg/kg P6 intravenous (i.v.) administration.
To evaluate the degree of motor function disorders associated with cerebral ischemia, the neurological scores (Clinical Scores) according to the following definition were used. In addition, two grade evaluation was carried out using numerical values 1 to 4 (when scores 1 and 2 were shown, 1.5 was used).
1: motor function disorders of the right front limb, 2: one-directional behavior, 3: unable to hold the position and incline, 4: disappearance of spontaneous movement, and 5: death.

[4] = tested on: model of retinal ischemia (retinal tissue damage); experiment: Evaluation of tissue damage by HE staining in a model of retinal ischemia; type: in vivo, mouse
[5] = tested on: proMMP-9; experiment: Gelatin zymography of proMMP-9 activity after retinal ischemia; type: in vivo, mouse; conditions: 10 pmol intravitreally after 3 hours of retinal ischemia; activity after 12 hours
Source text: It is known that a tight junction protein, occluding, is degraded by metalloproteinases (MMP) whose expression is increased by ischemia (J Cereb Blood Flow Metab, 2007. 27(4): p. 697-709). It is believed that MMP-9, in particular, plays a primary role in a failure of a blood-organ barrier by ischemia (J Cereb Blood Flow Metab, 2000. 20(12): p. 1681-9).
The expression level of MMP-9 is commonly low and the expression is derived by various stimuli by ischemia.

[6] = tested on: blood-brain barrier; experiment: Tomato lectin staining of vessels after tMCAO (blood-brain barrier dysfunction); type: in vivo, mouse; conditions: 0.1 mg/kg i.v. twice
[7] = tested on: tMCAO model (ischemia for 4 hours), tPA-induced cerebral hemorrhage; conditions: for tPA-induced cerebral hemorrhage: 10 mg/kg peptide coadministered with tPA
[8] = tested on: PIT model (motor coordination); experiment: Accelerated Rota rod test in the PIT model; conditions: 7 days after PIT
[9] = second Example 13, peptide in combination with tPA, peptide dose not given
[10] = 1 mg/kg i.v. after an hour of ischemia for an hour
[11] = 1 mg/kg into the caudal vein after an hour of reperfusion
[12] = i.v. after an hour after ischemia, 1 to 10 mg/kg

## CCC[C@H](N)C(=O)N[C@@H](CCC(=O)O)C(=O)N[C@H](C(=O)N[C@@H](CC(=O)O)C(=O)N[C@@H](CCC(=O)O)C(=O)N[C@@H](CCC(=O)O)C(=O)O)C(C)C [Peptide H] (H-[Nva]EVDEE-OH)
[1]; [9]
  damaged cerebral region by TTC staining: 51±8.3%
[2]; [9]
  Clinical score: 1.3±0.2

## CCCC[C@H](N)C(=O)N[C@@H](CCC(=O)O)C(=O)N[C@H](C(=O)N[C@@H](CC(=O)O)C(=O)N[C@@H](CCC(=O)O)C(=O)N[C@@H](CCC(=O)O)C(=O)O)C(C)C [Peptide I] (H-[Nle]EVDEE-OH)
[1]; [9]
  damaged cerebral region by TTC staining: 48±7.8%
[2]; [9]
  Clinical score: 1.3±0.3

## ADNEVDEEEEEGGEEEEEEEEGDGEEEDGD [Peptide P30, reference compound]
[3]; [10]
  protective effect on motor dysfunction: protective effect was low
[3]; [11]
  clinical score (average): approximately 4
[3]; 3 mg/kg i.v. after an hour of reperfusion
  protective effect (clinical scores): significant protective effect
[3]; 3 mg/kg into the caudal vein after an hour of reperfusion
  clinical score (average): approximately 2

## Ac-NEVDEE [Peptide G]
[1]; [9]
  damaged cerebral region by TTC staining: 60±3%
[2]; [9]
  Clinical score: 1.2±0.2

## NELDEE [Peptide K]
[1]; [9]
  damaged cerebral region by TTC staining: 53±1.7%
[2]; [9]
  Clinical score: 1.1±0.2

## NEVDED [Peptide N]
[1]; [9]
  damaged cerebral region by TTC staining: 43±4.9%
[2]; [9]
  Clinical score: 1.1±0.1

## NEVDEE [Peptide P6, NEVDEE]
[4]; 3 pmol/eye or more
  tissue damage (HE staining): tissue damage was inhibited
[4]; intravitreal administration of 10 pmol/eye
  tissue damage (HE staining): almost completely inhibited tissue damage
[5]
  increase in activity of proMMP-9 by ischemia: inhibited to about half
[3]; 1 mg/kg administered after two hours of tMCAO for an hour
  protective effect (cumulative clinical scores for 14 days, AUC): relatively lower than when administered after an hour
[3]; [10]
  protective effect on motor dysfunction: significant protective effect; also recorded: protective effect on motor dysfunction; also recorded: obvious ameliorative action on motor dysfunction; also recorded: inhibited motor dysfunction
[3]; [11]
  clinical score (average): approximately 2
[3]; 3 mg/kg and 10 mg/kg
  inhibitory effect on motor dysfunction at high dose: not as good as the case by 1 mg/kg single administration
[6]; after 0.5 hours and 3 hours of reperfusion, tMCAO for an hour
  tissue damage in the whole slice: slight
[6]; 24 hours after reperfusion
  vessel density (tomato lectin staining), ipsi versus contra: improvement of vessel density in both the core and the striatum
[7]; P6 3 and 10 mg/kg with tPA
  inhibitory effect on tPA-induced motor dysfunction and cerebral hemorrhage at increased dose: the inhibitory effect decreased concentration-dependently
[7]; combined use with 1 mg/kg P6
  cerebral hemorrhage induced by tPA: inhibited

## NEVDEE-NH2 [Peptide E, NEVDEE-NH2]
[5]
  increase in activity of proMMP-9 by ischemia: inhibited the activity of proMMP-9 to half or less
[3]; [12]
  protective effect on motor dysfunction: not as good as that of Peptide A and Peptide B
[1]; [9]
  damaged cerebral region by TTC staining: 50±2.6%
[2]; [9]
  Clinical score: 1.2±0.2

## NEVDEQ [Peptide O]
[1]; [9]
  damaged cerebral region by TTC staining: 54±5.8%
[2]; [9]
  Clinical score: 1±0

## NEVDQE [Peptide A, NEVDQE]
[3]; [12]
  protective effect on motor dysfunction: dose-dependently protective effect on motor dysfunction; also recorded: high protective activity
[3]; i.v., tMCAO 60 min ischemia
  dose showing the (greatest) protective effect on motor dysfunction: 3 mg/kg
[1]; Example 12, 10 mg/kg Peptide A after 5 hours, tPA after 6 hours
  damaged cerebral region by TTC staining: 37±2.7%
[1]; Peptide A (10 and 30 mg/kg) an hour before tPA (after 5 hours of ischemia)
  protective effect in the histochemical analysis: protective effect was recognized; also recorded: dose-dependent
[7]
  tPA-induced cerebral hemorrhage: significantly inhibited
[7]; tPA + 1 mg/kg
  hemorrhagic region: 0.7±0.2 mm^2
[7]; tPA + 3 mg/kg
  hemorrhagic region: 0.4±0.1 mm^2
[7]; tPA + 10 mg/kg
  hemorrhagic region: 0.2±0.1 mm^2
[2]; Example 12, Peptide A-alone (30 mg/kg)
  Clinical score: 1.3±0.4
[2]; Example 12, tPA and 10 mg/kg Peptide A
  Clinical score: 1±0
[2]; Example 12, tPA and 30 mg/kg Peptide A
  Clinical score: 1±0
[8]; 3 mg/kg i.v. after 5 hours + tPA 10 mg/kg after 6 hours
  motor function, time until fall (fall latency): motor ability was slightly recovered
[8]; 3 mg/kg i.v. after 5 hours + tPA 10 mg/kg after 6 hours, listed as modified P6: A
  motor function, time until fall (fall latency): 132 ± 15 s
[8]; 10 mg/kg i.v. after 5 hours + tPA 10 mg/kg after 6 hours
  motor function, time until fall (fall latency): motor ability was largely recovered
[8]; 10 mg/kg i.v. after 5 hours + tPA 10 mg/kg after 6 hours, listed as modified P6: A
  motor function, time until fall (fall latency): 192 ± 21 s
[8]; 30 mg/kg i.v. after 5 hours + tPA 10 mg/kg after 6 hours
  motor function, time until fall (fall latency): motor ability was largely recovered
[8]; 30 mg/kg i.v. after 5 hours + tPA 10 mg/kg after 6 hours, listed as modified P6: A
  motor function, time until fall (fall latency): 246 ± 16 s

## NEVDQE-NH2 [Peptide U]
[1]; [9]
  damaged cerebral region by TTC staining: 41±6.3%
[2]; [9]
  Clinical score: 1.1±0.1

## NEVEEE [Peptide C, NEVEEE]
[3]; [12]
  protective effect on motor dysfunction: not as good as that of Peptide A and Peptide B
[1]; [9]
  damaged cerebral region by TTC staining: 42±4.5%
[7]
  tPA-induced cerebral hemorrhage: did not show effects on any side effects
[2]; [9]
  Clinical score: 1.5±0.4

## NEVNEE [Peptide M]
[1]; [9]
  damaged cerebral region by TTC staining: 50±5.9%
[2]; [9]
  Clinical score: 1.1±0.2

## NEVNEE-NH2 [Peptide T]
[1]; [9]
  damaged cerebral region by TTC staining: 41±9.4%
[2]; [9]
  Clinical score: 1.4±0.4

## NQVDEE [Peptide J]
[1]; [9]
  damaged cerebral region by TTC staining: 51±4.1%
[2]; [9]
  Clinical score: 1.3±0.3
